{"source": "paper PMC6212790", "note": "The list shows a part of the results. At the low end of the ranking, values are background and their order means little.", "data": [{"target": "T1, GST-Rok (full length) (UniProt O34857)", "T1 sequence": "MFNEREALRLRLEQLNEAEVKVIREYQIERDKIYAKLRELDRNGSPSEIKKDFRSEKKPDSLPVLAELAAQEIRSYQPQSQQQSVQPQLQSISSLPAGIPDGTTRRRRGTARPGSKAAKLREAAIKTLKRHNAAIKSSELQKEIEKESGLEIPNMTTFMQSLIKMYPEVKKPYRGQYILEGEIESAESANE", "experiment": "protein binding microarray;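 further: rank score from −0.5 (least bound) to 0.5 (best bound)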", "conditions": "Rok is a gene silencer of Bacillus subtilis; high values mean tight binding; most listed sequences are background and not binding sites; double strand, one strand shown", "units": {"binding signal": "E-score"}, "values": [{"sequence": "CGTCAGAC", "binding signal": -0.227}, {"sequence": "AAACACCG", "binding signal": -0.0206}, {"sequence": "AGCTCTTC", "binding signal": -0.146}, {"sequence": "CGAAATAA", "binding signal": 0.201}, {"sequence": "ATATTGTA", "binding signal": 0.375}, {"sequence": "CCGACAAG", "binding signal": -0.204}, {"sequence": "CCTCTAAC", "binding signal": -0.0188}, {"sequence": "GCAAACGC", "binding signal": -0.151}, {"sequence": "ATGAATTA", "binding signal": 0.353}, {"sequence": "AAGACTTA", "binding signal": -0.0188}, {"sequence": "AGTGTTAA", "binding signal": 0.0921}, {"sequence": "CAGTAAAA", "binding signal": 0.264}, {"sequence": "TGTATGAA", "binding signal": 0.0597}, {"sequence": "ACCCCCTA", "binding signal": -0.351}, {"sequence": "ATCCTGCC", "binding signal": -0.0728}, {"sequence": "AGAACGCA", "binding signal": -0.0343}, {"sequence": "ACCAACTC", "binding signal": 0.0787}, {"sequence": "AGTTTCGC", "binding signal": 0.0913}, {"sequence": "CACATGTG", "binding signal": -0.211}, {"sequence": "GCTAGAGC", "binding signal": -0.185}, {"sequence": "CAAACGCG", "binding signal": -0.243}, {"sequence": "CTATTCAA", "binding signal": 0.0979}, {"sequence": "CATGTAGG", "binding signal": 0.116}, {"sequence": "ACCGCCAC", "binding signal": -0.135}, {"sequence": "CCGGAACC", "binding signal": -0.266}, {"sequence": "GCTACACA", "binding signal": 0.0448}, {"sequence": "AAAGTCTT", "binding signal": -0.0777}, {"sequence": "CTTATAGC", "binding signal": 0.186}, {"sequence": "CAGTGCCG", "binding signal": -0.272}, {"sequence": "CGATGACA", "binding signal": 0.0223}, {"sequence": "AAGTGGAC", "binding signal": -0.18}, {"sequence": "GGCGGAAA", "binding signal": -0.055}, {"sequence": "ACATGCAG", "binding signal": -0.0307}, {"sequence": "AAACATCA", "binding signal": 0.0364}, {"sequence": "CGACGGAG", "binding signal": -0.199}, {"sequence": "GATTTATA", "binding signal": 0.315}, {"sequence": "CTTAGAAC", "binding signal": 0.0504}, {"sequence": "GCCCTGCC", "binding signal": -0.341}, {"sequence": "GGAACCTA", "binding signal": -0.0327}, {"sequence": "AGAGATCA", "binding signal": -0.186}, {"sequence": "AAGGCAAC", "binding signal": -0.135}, {"sequence": "ACACCTTC", "binding signal": -0.0521}, {"sequence": "GCCAGTTA", "binding signal": 0.163}, {"sequence": "GAATACGA", "binding signal": 0.0974}, {"sequence": "TAACTGGA", "binding signal": 0.213}, {"sequence": "CTCGGGCA", "binding signal": -0.192}, {"sequence": "CACAAACA", "binding signal": 0.0611}, {"sequence": "TCGCACGA", "binding signal": -0.0828}, {"sequence": "AGTCCGAG", "binding signal": -0.252}, {"sequence": "CATGGTCA", "binding signal": -0.1}, {"sequence": "ACTGCGCG", "binding signal": -0.2}, {"sequence": "ACTGGAAT", "binding signal": 0.144}, {"sequence": "AAGTTGAG", "binding signal": -0.123}, {"sequence": "CGAAGGAA", "binding signal": -0.109}, {"sequence": "AATTATGG", "binding signal": 0.312}, {"sequence": "GATCAACA", "binding signal": -0.0993}, {"sequence": "CGCCCAGA", "binding signal": -0.254}, {"sequence": "CGAGAACC", "binding signal": -0.23}, {"sequence": "CCAGGTAA", "binding signal": -0.00946}, {"sequence": "CACCTCAG", "binding signal": -0.42}, {"sequence": "CACTGTAA", "binding signal": 0.0774}, {"sequence": "ATGTCTCG", "binding signal": -0.0514}, {"sequence": "AACTCGCA", "binding signal": 0.123}, {"sequence": "ATCCTCAT", "binding signal": -0.00517}, {"sequence": "GGCTTTAA", "binding signal": -0.215}, {"sequence": "GGCCAGTA", "binding signal": -0.181}, {"sequence": "GCTGAGGA", "binding signal": -0.0798}, {"sequence": "AGTCGGCC", "binding signal": -0.156}, {"sequence": "AGACACAA", "binding signal": -0.0824}, {"sequence": "CATAGTTC", "binding signal": 0.138}, {"sequence": "GACTTGCC", "binding signal": 0.0372}, {"sequence": "CAGCAGGC", "binding signal": -0.256}, {"sequence": "AATCAGTG", "binding signal": 0.128}, {"sequence": "CGTGGAGA", "binding signal": 0.119}, {"sequence": "GATTATTA", "binding signal": 0.174}, {"sequence": "AACGGTCG", "binding signal": -0.0798}, {"sequence": "ACGAGCTA", "binding signal": -0.107}, {"sequence": "ACATTAAT", "binding signal": 0.245}, {"sequence": "ATGATTTG", "binding signal": -0.123}, {"sequence": "CGTGCCAG", "binding signal": -0.0803}, {"sequence": "AAGCGCCA", "binding signal": -0.231}, {"sequence": "AGCTAGTA", "binding signal": 0.373}, {"sequence": "ACGTCAGC", "binding signal": -0.0909}, {"sequence": "AGACGAGA", "binding signal": 0.0192}, {"sequence": "CTTCCGTA", "binding signal": -0.109}, {"sequence": "AATGTACT", "binding signal": 0.303}, {"sequence": "ATATATGA", "binding signal": 0.287}, {"sequence": "AAGATTGG", "binding signal": 0.126}, {"sequence": "GAATGCGA", "binding signal": 0.0795}, {"sequence": "AGTTCGAT", "binding signal": 0.189}, {"sequence": "ACACGATA", "binding signal": 0.0986}, {"sequence": "GCCACGAC", "binding signal": -0.171}, {"sequence": "CGGCTGGA", "binding signal": -0.202}, {"sequence": "AGACATTC", "binding signal": 0.0202}]}]}
